{"source": "the supplement of paper PMC7826260", "note": "The list shows a part of the results. One pool of 16,384 single-stranded DNAs met each Rep nickase domain in vitro (3 µM enzyme, 1 h, 37 °C); shown is the middle of each 90-letter strand. The score is log2 (uncut reads / reads without enzyme); uncut sequences lie near 0, cut ones below; no hit call is given. Counts are relative to all reads; values above 0 arise when much of the pool is cut."}
{"tested_on": "T1, Rep nickase domain of tomato golden mosaic virus", "T1 sequence (residues 1-124 of Rep, tag left off)": "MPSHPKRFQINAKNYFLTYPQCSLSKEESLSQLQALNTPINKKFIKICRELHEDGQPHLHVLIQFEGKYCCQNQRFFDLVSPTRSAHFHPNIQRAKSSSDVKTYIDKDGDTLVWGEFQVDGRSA", "test": "uncleaved DNA left, log2 of reads against the no-enzyme library (log2 ratio); higher = less cleavage (more negative = more Rep cleavage of the k-mer); sequences stand for … in CTCGTCCG…ACCGGAGA", "procedure": "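A pool of 90-nt single-stranded DNAs with seven random bases just before the constant AC of the nick site (name = the seven bases) was cut by 3 µM recombinant His6-SUMO-tagged Rep nickase domain (300 nM DNA, 50 mM HEPES pH 8.0, 50 mM NaCl, 1 mM MnCl2, 1 h, 37 °C, three replicates). Uncut DNA was amplified and sequenced.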"}
{"sequence": "TATTTTT", "uncleaved DNA left (log2)": -1.59}
{"sequence": "GGATCAG", "uncleaved DNA left (log2)": 0.0531}
{"sequence": "CGGAGGG", "uncleaved DNA left (log2)": -0.16}
{"sequence": "GGTTAGC", "uncleaved DNA left (log2)": 0.0526}
{"sequence": "GGAAGAG", "uncleaved DNA left (log2)": 0.0812}
{"sequence": "CGGCCTA", "uncleaved DNA left (log2)": 0.0349}
{"sequence": "CGTGCCC", "uncleaved DNA left (log2)": -0.115}
{"sequence": "GAGCCTT", "uncleaved DNA left (log2)": -0.0449}
{"sequence": "GAGCTTG", "uncleaved DNA left (log2)": 0.135}
{"sequence": "GCTAGAA", "uncleaved DNA left (log2)": -0.0246}
{"sequence": "TCTCAGT", "uncleaved DNA left (log2)": 0.0953}
{"sequence": "GGCTTTG", "uncleaved DNA left (log2)": 0.0141}
{"sequence": "ACTGGCG", "uncleaved DNA left (log2)": 0.0897}
{"sequence": "CTTTGTA", "uncleaved DNA left (log2)": -0.282}
{"sequence": "GGGAAAA", "uncleaved DNA left (log2)": 0.0297}
{"sequence": "CATAGCG", "uncleaved DNA left (log2)": -0.0565}
{"sequence": "TCAAATC", "uncleaved DNA left (log2)": -0.014}
{"sequence": "TCCAGGT", "uncleaved DNA left (log2)": 0.101}
{"sequence": "CGCCAGT", "uncleaved DNA left (log2)": -0.0613}
{"sequence": "AATGAAA", "uncleaved DNA left (log2)": -0.0403}
{"sequence": "TGTAAGT", "uncleaved DNA left (log2)": 0.0514}
{"sequence": "TAGCTGG", "uncleaved DNA left (log2)": 0.0826}
{"sequence": "CTCATCT", "uncleaved DNA left (log2)": -0.00689}
{"sequence": "TAACGGT", "uncleaved DNA left (log2)": 0.137}
{"sequence": "CAAGTAT", "uncleaved DNA left (log2)": -0.122}
{"sequence": "GCTGGAC", "uncleaved DNA left (log2)": 0.104}
{"sequence": "AGAATCG", "uncleaved DNA left (log2)": 0.065}
{"sequence": "CTATGAG", "uncleaved DNA left (log2)": -0.109}
{"sequence": "TGAAACT", "uncleaved DNA left (log2)": 0.14}
{"sequence": "AACTACT", "uncleaved DNA left (log2)": -0.451}
{"sequence": "GAATGGA", "uncleaved DNA left (log2)": -0.0355}
{"sequence": "AAAATAC", "uncleaved DNA left (log2)": -0.00753}
{"sequence": "TGGAACG", "uncleaved DNA left (log2)": -0.0279}
{"sequence": "ACACATC", "uncleaved DNA left (log2)": 0.0522}
{"sequence": "AAAGCCG", "uncleaved DNA left (log2)": -0.121}
{"sequence": "CTGAGCA", "uncleaved DNA left (log2)": -0.116}
{"sequence": "CAACTTG", "uncleaved DNA left (log2)": -0.0755}
{"sequence": "AATAGTT", "uncleaved DNA left (log2)": -0.0433}
{"sequence": "TAGGCAC", "uncleaved DNA left (log2)": 0.0443}
{"sequence": "ATCTGAC", "uncleaved DNA left (log2)": 0.0842}
